Results: PubChem BioAssay AID1460 (National Center for Advancing Translational Sciences (NCATS), 2008)
Where “and” joins values, the source holds several entries; their conditions need not be identical. Equal entries are not always repeated. About 5,800 (2.1%) of roughly 270,000 compounds were called active. The inconclusive results got no clear call from the source; some entries with a clear call stand among them for comparison. Calls come from the whole dose curve; as a rule, active = well fitted inhibition curve with a large enough effect; inconclusive = small, poorly fitted or top-dose-only effect; inactive = flat fitted curve, though single readings scatter. A potency beside an inconclusive call is a rough fit, not a confirmed value. Some structures have more than one record in an assay (separate samples or runs), and their calls can disagree.

Each compound was assayed against Microtubule-associated protein tau (Homo sapiens) (UniProt P10636) (assay: qHTS for Inhibitors of Tau Fibril Formation, Thioflavin T Binding). Details: recombinant tau K18 P301L, heparin-induced fibrillization, ThT fluorescence; series mostly up to 57.4 µM; activity, negative = inhibition: at the top concentration.
Outline: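 ThT emission at 510 nm, taken 1 hr after adding 30 uM dye, quantifies aggregates formed when 20 uM heparin acts on human tau K18 P301L for 6 hr at 37 C.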
% is set by controls: 0 for no effect and ±100 for the full control effect; potency is the fitted concentration of half-maximal effect; tags give direction and shape of the fitted curve.
Note: nearly all actives have a fitted effect of over 55% in size.

Chain of UniProt P10636 (P10636 whole entry, looked up): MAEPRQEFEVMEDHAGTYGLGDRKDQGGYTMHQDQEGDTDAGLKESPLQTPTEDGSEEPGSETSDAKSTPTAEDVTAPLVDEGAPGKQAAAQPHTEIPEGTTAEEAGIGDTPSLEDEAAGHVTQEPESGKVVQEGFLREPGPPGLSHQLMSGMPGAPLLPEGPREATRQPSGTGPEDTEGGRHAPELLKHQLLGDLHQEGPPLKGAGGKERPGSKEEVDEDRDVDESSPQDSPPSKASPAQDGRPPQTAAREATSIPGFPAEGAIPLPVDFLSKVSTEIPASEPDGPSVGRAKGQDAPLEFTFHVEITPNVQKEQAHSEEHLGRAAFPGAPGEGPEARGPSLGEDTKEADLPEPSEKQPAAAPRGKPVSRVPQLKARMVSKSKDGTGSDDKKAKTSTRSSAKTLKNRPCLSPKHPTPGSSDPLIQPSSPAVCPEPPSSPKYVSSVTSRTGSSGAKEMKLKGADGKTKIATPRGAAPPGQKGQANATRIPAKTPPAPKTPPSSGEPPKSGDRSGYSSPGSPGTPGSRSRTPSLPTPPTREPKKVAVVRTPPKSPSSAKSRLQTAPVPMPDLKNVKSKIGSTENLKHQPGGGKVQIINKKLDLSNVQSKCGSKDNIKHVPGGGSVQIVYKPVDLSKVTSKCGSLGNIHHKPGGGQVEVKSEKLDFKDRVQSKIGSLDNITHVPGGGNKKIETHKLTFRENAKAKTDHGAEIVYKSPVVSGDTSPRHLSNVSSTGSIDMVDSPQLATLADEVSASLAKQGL

Row | Structure (SMILES) | Potency | activity, negative = inhibition
1 | CCOC(=O)c1c(-n2c(C)cc(C=C3C(=O)NC(=O)NC3=O)c2C)sc2c1CCCC2 | inconclusive: 15.8 µM [inhibitor, partial curve] | 
2 | Nc1ccc2c3c(cccc13)CC2 | inconclusive: 20 µM [inhibitor, partial curve] | 
3 | COc1cc(C)c(CN2CCN(c3ccccc3)CC2)cc1C | inconclusive: 31.6 µM [inhibitor, single point] | 
4 | O=C(c1cc2c(s1)CCCC2)N1CCC2(CC1)OCCO2 |  | inactive: -15%
5 | CC(C)CNC(=O)c1c(N)n(Cc2ccco2)c2nc3ccccc3nc12 | inconclusive: 35.5 µM [inhibitor, single point] | 
6 | CCn1c(N)c(C(=O)NC)sc1=S | inconclusive: 25.1 µM [inhibitor, single point] | 
7 | CCOc1ccc(NC(=O)C(=S)NC2CCCCC2)cc1 | inconclusive: 10 µM [inhibitor, partial curve] | 
8 | COC(=O)c1c(C)n(Cc2ccccc2)c2ccc(O)cc12 | inconclusive: 20 µM [inhibitor, partial curve] | 
9 | CCOC(=O)c1sc(/N=C/c2c(O)n(-c3ccccc3)c(=O)[nH]c2=O)c(C#N)c1C | inconclusive: 12.6 µM [inhibitor, partial curve] | 
10 | Cn1c(O)c(/C=C2/C=CC=N2)c(=O)[nH]c1=O | inconclusive: 15.8 µM [inhibitor, single point] | 
11 | CCOC(=O)[C@@]1(C#N)C(c2ccc(Cl)c(Cl)c2)[C@H](C(N)=O)N2C=C(C(C)=O)C=C[C@H]21 (stereo not given in full) | inconclusive: 28.2 µM [inhibitor, partial curve] | 
12 | CCC12CN3CC(CC)(CN(C1)C3c1ccccn1)C2=O (stereo not given) |  | inactive: -2.21%
13 | CCC(=O)OC1CCC2C3CCc4cc(O)ccc4C3CC[C@]12C (stereo not given in full) | inconclusive: 7.08 µM [inhibitor, partial curve] | 
14 | COc1ccc(C2Oc3c(I)c(OC)cc(OC)c3CC2O)cc1OC (stereo not given) | inconclusive: 1 µM [inhibitor, full curve, poor fit] | 
15 | O=c1oc2ccccc2c(O)c1C(c1ccc([N+](=O)[O-])cc1)c1c(O)c2ccccc2oc1=O | inconclusive: 17.8 µM [inhibitor, single point] | 
16 | O=c1cc(C(F)(F)F)c2cc3c4c(c2o1)CCCN4CCC3 |  | inactive: 6.19%
17 | CCC(CO)NC(=O)[C@@H]1C=C2c3cccc4[nH]cc(c34)C[C@H]2N(C)C1 (stereo not given in full) |  | inactive: -15.5%
18 | CCOc1ccc(N2C(=O)/C(=C\c3cccs3)C(=O)NC2=S)cc1 | inconclusive: 12.6 µM [inhibitor, partial curve] | 
19 | CCOc1ccc(C2CC(c3c(O)n(C)c(=O)n(C)c3=O)=NN2)cc1 (stereo not given) | inconclusive: 15.8 µM [inhibitor, partial curve] | 
20 | O=C1NC(=O)N(c2ccc(Br)cc2)C(=O)/C1=C/c1ccsc1 | inconclusive: 8.91 µM [inhibitor, partial curve] | 
21 | CCn1c(O)c(C=Nc2cc(Cl)ccc2Cl)c(=O)n(CC)c1=O | inconclusive: 11.2 µM [inhibitor, partial curve] | 
22 | CCn1c(O)c(/C=N/N2CCOCC2)c(=O)n(CC)c1=S | inconclusive: 39.8 µM [inhibitor, single point] | 

Row | Structure (SMILES) | Potency | activity, negative = inhibition
23 | C=CCN1C(=O)/C(=C/c2cccs2)C(=O)NC1=S | inconclusive: 7.08 µM [inhibitor, partial curve] | 
24 | C[N+]1(CC(=O)OCCCc2ccccc2)CCCCC1 | inconclusive: 10 µM [inhibitor, partial curve] | 
25 | O=c1[nH]c(=S)n(-c2ccc(Cl)cc2)c(O)c1C=Nc1ccc(N2CCOCC2)cc1 | active: 25.1 µM | 
26 | CCc1ccc(N2NC(=O)/C(=C/C=C/c3ccco3)C2=O)cc1 | active: 8.91 µM | 
27 | CC(C)(C)c1ccc(OC(=O)N2CCCCC2)cc1 | inconclusive: 22.4 µM [inhibitor, partial curve] | 
28 | Cc1ccc(-n2nc(C)c3c2NC(=O)CSC3c2ccc3c(c2)OCO3)cc1 (stereo not given) | inconclusive: 28.2 µM [inhibitor, partial curve] | 
29 | O=C(COc1ccc(Cl)cc1)Nc1ccc(Cl)cc1C(=O)c1ccccc1 |  | inactive: -16.8%
30 | COc1cc(/C=C2\C(=O)NC(=O)N(CCc3ccc(F)cc3)C2=O)ccc1O | inconclusive: 8.91 µM [inhibitor, partial curve] | 
31 | CCOC(=O)/C(C#N)=C1/SC(C)C(=O)N1c1ccc(Br)cc1 (stereo not given) | inconclusive: 22.4 µM [inhibitor, partial curve, poor fit] | 
32 | CCOCCCNC(=O)c1c(NC(=O)c2nc(SC)ncc2Cl)sc2c1CCCC2 | inconclusive: 5.01 µM [inhibitor, partial curve] | 
33 | N/C(=N\N=C/c1ccc(-c2ccc(O)c(C(=O)O)c2)o1)N[N+](=O)[O-] | active: 4.47 µM | 
34 | CCCOc1ccc(N2C(=O)CC(N3CC=C(c4ccccc4)CC3)C2=O)cc1 (stereo not given) | active: 31.6 µM | 
35 | O=c1ccc2[nH]cc(C3=CCNCC3)c2[nH]1 |  | inactive: -5.89%
36 | CC12C=CC(=O)C=C1CCC1C2=CCC2(C)C1CC[C@@H]2C(=O)CN1CCN(c2cc(N3CCCC3)nc(N3CCCC3)n2)CC1 (stereo not given in full) | active: 7.08 µM | 
37 | CC(C)C[C@H]1C(=O)N2CCC[C@H]2[C@]2(O)O[C@](NC(=O)[C@@H]3C=C4c5cccc6[nH]c(Br)c(c56)CC4N(C)C3)(C(C)C)C(=O)N12 (stereo not given in full) | inconclusive: 14.1 µM [inhibitor, partial curve] | 
38 | O=C(N/N=C/c1c(O)n(-c2cccc3ccccc23)c(=O)[nH]c1=O)c1ccncc1 |  | inactive: -13.2%
39 | O=C1NC(=O)N(c2cccc(Br)c2)C(=O)/C1=C/c1ccsc1 | inconclusive: 17.8 µM [inhibitor, partial curve, poor fit] | 
40 | CC(C)c1ccc2c(c1O)CCC1C3=C(CC[C@]21C)C(=O)OC3 (stereo not given in full) |  | inactive: -9.53%
41 | CCOc1ccc(-c2c(C)n(-c3ccc(OCC)cc3)c3[n+]2CCCCC3)cc1 | inconclusive: 31.6 µM [inhibitor, single point] | 
42 | CCSc1cc(C2C(C#N)=C(N)Oc3n[nH]c(C)c32)c(C)o1 (stereo not given) | inconclusive: 25.1 µM [inhibitor, single point] | 
43 | CCCCC/C=C\C/C=C\C/C=C\C/C=C\CCCC(=O)O | active: 12.6 µM and active: 28.2 µM | 
44 | O=C(c1ccc(N2CCCCC2)c([N+](=O)[O-])c1)N1CCC2(CC1)OCCO2 |  | inactive: -3.61%

Row | Structure (SMILES) | Potency | activity, negative = inhibition
45 | CC(=O)[O][Hg][c]1ccccc1 | inconclusive: 1.78 µM [inhibitor, full curve] | 
46 | CN1CCc2nc(N)c(C#N)c(-c3ccccc3)c2C1 | inconclusive: 35.5 µM [inhibitor, single point] | 
47 | O=c1[nH]c2ccccc2n1C1CCN(CCCC(c2ccc(F)cc2)c2ccc(F)cc2)CC1 | inconclusive: 22.4 µM [inhibitor, partial curve, poor fit] and inconclusive: 39.8 µM [inhibitor, single point] and inconclusive: 6.31 µM [inhibitor, full curve, poor fit] | 
48 | C[C@@H](N)[C@@H](O)c1ccc(O)c(O)c1 | active: 3.98 µM | 
49 | CCC(C)N1C(=O)/C(=C\c2cc3c4c(c2)CCCN4CCC3)C(=O)NC1=S (stereo not given) | inconclusive: 15.8 µM [inhibitor, partial curve] | 
50 | Brc1ccc2c(c1)C(OC1CN3CCC1CC3)c1ccccc1CS2 (stereo not given) | inconclusive: 17.8 µM [inhibitor, single point] | 
51 | CCCCOc1ccc(CC2C(=O)N(C)C(=O)N(C)C2=O)cc1 |  | inactive: 2.91%
52 | COc1ccc(-c2cc(=O)c3cc(OCC(=O)OC(C)C)ccc3o2)cc1 | inconclusive: 0.708 µM [inhibitor, full curve] | 
53 | O=C1NC(=O)N(Cc2ccccc2Cl)C(=O)/C1=C/c1cccs1 | inconclusive: 4.47 µM [inhibitor, full curve] | 
54 | COC(=O)[C@]1(C)C[C@H]1[C@H](NP(=O)(c1ccccc1)c1ccccc1)c1ccccc1 | inactive | 
55 | CCN1CCN(Cc2cc(C(C)(C)C)c(O)c(C(C)(C)C)c2)CC1 | inconclusive: 22.4 µM [inhibitor, single point] | 
56 | Cc1ccc(-n2c(O)c(C=Nc3ccc(S(=O)(=O)N(C)C)cc3)c(=O)[nH]c2=O)cc1 | inconclusive: 3.55 µM [inhibitor, full curve] | 
57 | COc1ccccc1-n1c(O)c(/C=N/NC(=S)Nc2ccccc2)c(=O)[nH]c1=S | inconclusive: 12.6 µM [inhibitor, partial curve] | 
58 | O=C(/C=C/c1ccccc1)C1C(=O)c2ccccc2C1=O | inconclusive: 25.1 µM [inhibitor, single point] | 
59 | CC(C)c1ccc(N2C(=O)NC(=O)/C(=C/C=C/c3ccco3)C2=O)cc1 | active: 14.1 µM | 
60 | CCC1(C)CC(C(N)=S)CCO1 (stereo not given) | active: 12.6 µM | 
61 | Cc1cc(/C=C2\C(=O)NC(=O)N(Cc3ccccc3)C2=O)c(C)n1C1CC1 |  | inactive: -9.16%
62 | O=C1N=c2ccccc2=C/C1=C\c1c(O)[nH]c(=S)[nH]c1=O | inconclusive: 11.2 µM [inhibitor, partial curve] | 
63 | Nc1ccc(CCN2CCN(c3cccc(C(F)(F)F)c3)CC2)cc1 | inconclusive: 2.82 µM [inhibitor, partial curve, poor fit] and inconclusive: 6.31 µM [inhibitor, partial curve] | 
64 | COc1cccc2c1cc([N+](=O)[O-])c1c(C(=O)O)cc3c(c12)OCO3 | active: 17.8 µM and active: 12.6 µM and active: 14.1 µM | 
65 | Cn1c(O)c(C(c2ccncc2)c2c(O)n(C)c(=S)n(C)c2=O)c(=O)n(C)c1=S | inconclusive: 17.8 µM [inhibitor, partial curve] | 
